Data as given in publication PMC12136788.
Changes are numbered by the printed parent chain. The list shows a part of the results.

B1: chr12:76027553:76027654:-|3pUTR|ENSG00000139289|msi1|total|mutant (ssRNA)
RNA: GGGAGUUCUACAGUCCGACGAUCCUCCUGAGCCGCUGGGACUACAGGUGAAUGCCACCACGCCCGGCUGAUUUUUGUAUUUUCCGCCGAGAUGGGGUUUCACCACCGUGGUCAGGCUGUUCUCGAACUCCUGACCUCAGGUGACAACAGAGGAUUGAGCAUCA
B2: chr8:42175503:42175666:-|3pUTR|ENSG00000104368|msi1|FALSE|unique (ssRNA)
RNA: GGGAGUUCUACAGUCCGACGAUCAUGAAAGCAUGUCUCAAUAGUAAAAGAUAACAAGAUCUUUCAGGAAAGACGGAUUGCAUUAGAAAUAGACAGUAUAUUUAUAGUCACAAGAGCCCAGCAGGGCCUCAAAGUUGGGGCAGGCAACAGAGGAUUGAGCAUCA
B3: chr1:156742365:156742464:-|3pUTR|ENSG00000143321|msi1_unk|total|mutant (ssRNA)
RNA: GGGAGUUCUACAGUCCGACGAUCAUUUCUGAGGUGCACUGGGAGGCUCCCCUUCUAUUUGGGGCUUGAUGACUUUCUUUUUGCCGCUGGGGCUUUGAUGUUCCUUCCAGUGUCAUUUCUCAUCCACAUACCCUGACCUGGCCCCAACAGAGGAUUGAGCAUCA
B4: chr4:177430861:177430962:-|3pUTR|ENSG00000038002|msi1|total|mutant (ssRNA)
RNA: GGGAGUUCUACAGUCCGACGAUCUUUACUAAUUCCUUGUGCAGAGGUGGGUAUGGCAAUCCGAAGUCAAGAAAUGGGUUGUUCCGCUUGGUUUGUUUCCCUAACUUCUGAUUAACUCUCUGUAUGACAACUCUACAGAAGUUGCAACAGAGGAUUGAGCAUCA
B5: chr4:138171112:138171219:-|3pUTR|ENSG00000151012|msi1|FALSE|unique (ssRNA)
RNA: GGGAGUUCUACAGUCCGACGAUCUUUUUUUUUUUCACAUCAGUUUGAUCAGGAAAGUGUAUAACACAUCUUAGAGCAAGAGUUAGUUUGGUAUUAAAUCCUCAUUAGAACAACCACCUGUUUCACUAAUAACUUACCCCUGAUCAACAGAGGAUUGAGCAUCA
B6: chr11:69651622:69651678:+|3pUTR|ENSG00000110092|msi1_unk|FALSE|overlapping (ssRNA)
RNA: GGGAGUUCUACAGUCCGACGAUCUUAUACCCCAAUAAUCAACUCGUUUUUAUAUUAAUGUACUUGUUUCUCUGUUGUAAGAAUAGGCAUUAACACAAAGGAGGCGUCUCGGGAGAGGAUUAGGUUCCAUCCUUUACGUGUUUACAACAGAGGAUUGAGCAUCA
B7: chr6:87085629:87085739:-|3pUTR|ENSG00000135346|unk|FALSE|unique (ssRNA)
RNA: GGGAGUUCUACAGUCCGACGAUCGUUUUACCAAGUGCUGUCUUGAUGACUGCUGAUUUUCUGGAAUGGAAAAUUAAGUUGUUUAGUGUUUAUGGCUUUGUGAGAUAAAACUCUCCUUUUCCUUACCAUACCACUUUGACACGCCAACAGAGGAUUGAGCAUCA
B8: chr17:78853230:78853302:-|3pUTR|ENSG00000035862|msi1_unk|total|mutant (ssRNA)
RNA: GGGAGUUCUACAGUCCGACGAUCCUCUUCUCCUAUUUUCAUCCUGCAAGCAACUCAAAAUAUUUAAAAUAAAGUUUACAUUGCCGUUAUUUUCAAAUCUUUGCUUGAUAAGUAUUAAGAAAUAUUGGACUUGCUGCCGUAAUUCAACAGAGGAUUGAGCAUCA
B9: chr6:52791370:52791857:-|three_prime_utr|ENSG00000243955|control|control|control (ssRNA)
RNA: GGGAGUUCUACAGUCCGACGAUCGCUAAUGAACUCUUUCAAAUUAUAUGCUAAUUAAAUAAUACAACUCCUAUUCGCUGACUUAGUUAAAAUUGAUUUGUUUUCAUUAGGAUCUGAUGUGAAUUCAGAUUUCCAAUCUUCUCCCAACAGAGGAUUGAGCAUCA
B10: chr1:178442813:178442920:+|CDS|ENSG00000075391|unk|FALSE|unique (ssRNA)
RNA: GGGAGUUCUACAGUCCGACGAUCAAAGCAGACAAUAUUUUCUGGGGCGAACAUUUUGAAUUCUUCAGCCUUCCACCUCUUCAUAGUAUCACAGUUCACAUUUACAAGGAUGUGGAAAAAAAGAAAAAAAAGGACAAGAAUAAUCAACAGAGGAUUGAGCAUCA
B11: chr1:117959336:117959438:+|CDS|ENSG00000065183|unk|total|mutant (ssRNA)
RNA: GGGAGUUCUACAGUCCGACGAUCGAUUAUCUCAAGAGGGAAUGCGAGGCAAAAAGUGAAGUUAUGUUUUUUGCUGAUGCUACCCGCCACUUGGAAGAGAAGAAGAGGAAGAGGAAAAAGAGGGAGAAGUUGAUUCUAACGUUGCAACAGAGGAUUGAGCAUCA
B12: chr4:177430861:177430962:-|3pUTR|ENSG00000038002|msi1|FALSE|unique (ssRNA)
RNA: B4 RNA with C60U, C61A, C83U, C84A
B13: chr15:34978960:34979061:-|3pUTR|ENSG00000198146|msi1|total|mutant (ssRNA)
RNA: GGGAGUUCUACAGUCCGACGAUCGCCCUCUGUAUCCAUGUACUCUGCAUCUGUGGAUUAAACCAAUUGCAGAUCAAAAAUAUCCGAAAAAAUAAAAAUAAUACAAAUAAAAAUACAGUAUAACAGUUAUUUAAACCGCAUUUACAACAGAGGAUUGAGCAUCA
B14: chr19:41432845:41433434:-|three_prime_utr|ENSG00000105341|control|control|control (ssRNA)
RNA: GGGAGUUCUACAGUCCGACGAUCGCCCAGGCACCUCUCCCACCUAACCCAGAUGCAGGAGAGGAAGUGGGGAGGGGCAAUGUUAGGCAGUUCUCAUAUCCCCCUGCAUCCAUCACAAACCUAGAGUAUUUAUGGUAGAUGAGCCAACAGAGGAUUGAGCAUCA
B15: chr2:30910466:30910900:-|three_prime_utr|ENSG00000158089|control|control|control (ssRNA)
RNA: GGGAGUUCUACAGUCCGACGAUCUCCUUUUCCUACAAAGGAAGCAGUCUCUGGAGGCCAGAAAGAAAAGCCUUCUUUUUCACUAGGCCAGGACUACAUUGAGAGAUGAAGAAUGGAGGUUGUUUCCAAAAGAAAUAAAGAGAACAACAGAGGAUUGAGCAUCA
B16: ENSG00000124766:be:win_3851|3pUTR|ENSG00000124766|bound_else_gene|NA|bound_elsewhere_windowed (ssRNA)
RNA: GGGAGUUCUACAGUCCGACGAUCUCCGUUAAGGGUUUUUGUUUUUAAACUUUUUUUUGCCAUCCAUCCUGUGCAAUAUGCCGUGUAGAAUAUUUGUCUUAAAAUUCAAGGCCACAAAAACAAUGUUUGGGGGAAAAAAAAGAACAACAGAGGAUUGAGCAUCA
B17: chr17:58089516:58089557:+|3pUTR|ENSG00000264364|msi1_unk|FALSE|overlapping (ssRNA)
RNA: GGGAGUUCUACAGUCCGACGAUCGAAGGCUGCUUUAUGUUUAUUUUUCAAGACUUUAAAAAUAUUUUUUGGUUGUAUUGCACUAGGAAAUCUCUCCCACCUCUCCCUUUUCUCUUUCUUUCCCUAUACAAAAUAAAAGGCCCACAACAGAGGAUUGAGCAUCA
B18: chr10:16593140:16593241:-|3pUTR|ENSG00000148484|unk|FALSE|unique (ssRNA)
RNA: GGGAGUUCUACAGUCCGACGAUCUUAUUUUUCUUUUCACUCUCUUUCUAAUGCUUCCCACCUUACCUUUUAGAUUCUUUUGCUAGGUGGGAGAUUGUUAUAAGGUCUUUAAACCAUUUCCAUUUGUUUCUUUAACAUUACCAACAACAGAGGAUUGAGCAUCA
B19: chr22:38483724:38483825:-|3pUTR|ENSG00000100201|msi1|FALSE|bound_elsewhere (ssRNA)
RNA: GGGAGUUCUACAGUCCGACGAUCACUUAUAAUUCAGGUUCUGCUGUUGGCUUCAGAACAUGAGCAGAAGAAUCGUUUUAUGCUAGUUAUUGCAUUCAUGGUUGAAACUCAACUUAGGGAAAGGGUUCCAAUGUAUUAAGCAAUCAACAGAGGAUUGAGCAUCA
B20: chr7:152649051:152649153:-|CDS|ENSG00000196584|unk|FALSE|unique (ssRNA)
RNA: GGGAGUUCUACAGUCCGACGAUCAGCUCUGAAGAAAUAAUCAAAUACUGCCUGGGAAGAUUUUUUUUGGUGUACUGCAGUAGUAGCACCCACUUACUUCUUACACUUUACUCACUAGAAAGUAUGUUUUGUAGUCACCCAUCUCAACAGAGGAUUGAGCAUCA
B21: chr9:88475159:88475277:+|CDS|ENSG00000106723|unk|total|mutant (ssRNA)
RNA: GGGAGUUCUACAGUCCGACGAUCACAAGUGGAAUAUGCCAAAGAAGAUGGCUCGAAAAGGACUGGCAUGGUCAUUCAUCAAGCCGAAGCCAAGCCCUCCGUCUAUUUCAUCAAGUUUGAUGAUGAUUUCCAUAUUUAUGUCUACAACAGAGGAUUGAGCAUCA
B22: chr7:77779054:77779164:+|CDS|ENSG00000187257|unk|total|mutant (ssRNA)
RNA: GGGAGUUCUACAGUCCGACGAUCUAAAUUUGAAAACCGCAACAAAGAUUUAAAGGAAGAAUUGUGCCCUGGAAAUCUAAGUCCCGUUGAUACAAGGCAACACAGUUCAGCACAUUCAAAUCAAGAUAAAAAAGACGAUGACAUCAACAGAGGAUUGAGCAUCA

Each binder was assayed against MSI1 full-length (mouse, UniProt Q61474 1-362) (assay: nsRBNS (natural sequence RNA bind-n-seq); RBNS binding buffer (assumed for nsRBNS): 25 mM Tris pH 7.5, 150 mM KCl, 3 mM MgCl2, 0.01% Triton X-100, 500 ug/ml BSA, 20 U/ml SUPERase-In, 4 C; UNK is unkempt and MSI1 is Musashi-1; names of the RNAs are library labels; protein concentration not given here; high values mean tight binding).
UniProt Q61474, sequence (Q61474 whole entry): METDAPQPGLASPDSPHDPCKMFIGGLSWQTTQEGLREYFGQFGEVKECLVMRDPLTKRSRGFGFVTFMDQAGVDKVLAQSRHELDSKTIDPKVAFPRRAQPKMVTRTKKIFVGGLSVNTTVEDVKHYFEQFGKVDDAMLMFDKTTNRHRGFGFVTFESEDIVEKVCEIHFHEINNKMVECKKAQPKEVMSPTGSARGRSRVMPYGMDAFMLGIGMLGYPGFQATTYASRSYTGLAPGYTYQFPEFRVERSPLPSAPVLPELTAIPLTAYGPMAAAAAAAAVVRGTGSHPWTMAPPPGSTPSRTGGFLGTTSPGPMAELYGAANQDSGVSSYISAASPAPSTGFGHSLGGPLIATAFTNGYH
With B1 the binding signal was 0.37 enrichment R. Binder B2 has a binding signal of 41.9 enrichment R. For B3, the binding signal was 0.353 enrichment R. B4 showed a binding signal of 0.375 enrichment R. Work on B5 yielded a binding signal of 10.8 enrichment R. Work on B6 yielded a binding signal of 1.75 enrichment R. B7 gave a binding signal of 0.459 enrichment R. For B8, the binding signal was 0.841 enrichment R. In the case of B9, the binding signal is reported as 4.6 enrichment R. B10 gave a binding signal of 0.844 enrichment R. B11 gave a binding signal of 0.524 enrichment R. Work on B12 yielded a binding signal of 0.6 enrichment R. B13 was tested, and the binding signal was 2.16 enrichment R. In the case of B14, the binding signal is reported as 3.97 enrichment R. B15 gave a binding signal of 0.297 enrichment R. B16 gave a binding signal of 0.715 enrichment R. For B17, the binding signal was 1.58 enrichment R. B18 gave a binding signal of 10.5 enrichment R. B19 showed a binding signal of 0.742 enrichment R. Work on B20 yielded a binding signal of 1.1 enrichment R. Work on B21 yielded a binding signal of 0.297 enrichment R. With B22 the binding signal was 0.179 enrichment R.
